Data on 31 compounds can be found in ChEMBL document CHEMBL1201862, “PubChem BioAssay data set” (2004).

Structures are written as SMILES.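 Following 48 hours of exposure in 96-well plates, responses at five concentrations were used to interpolate endpoints linearly. GI50: concentration for 50% inhibition of growth.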 Calls of active or inactive are those of the source. No stated cut-off is given here; in the data, active = GI50 up to about 1.1 µM and inactive = higher. Some results are limits rather than exact numbers.

This assay relates to NCI-H322M. As to the kind of experiment: inhibition of tumour cell growth, NCI panel, 48 h.
Turning to `CC(C)(CC(=O)Nc1ccccc1)C(=O)O`, the GI50 is inactive: > 100 µM.

As for `O=C(/C=C(\O)c1cc(-c2ccccc2)n(-c2ccccc2)n1)c1ccccc1`, the GI50 was inactive: 11 µM.

On to `CCSc1n/c(=C\c2ccco2)c2nncn12`, for which the GI50 is inactive: > 100 µM.

On to `Cc1nc(N)nn1C1OCC(O)C(O)C1O` (stereo unspecified), for which the GI50 was inactive: > 100 µM.

Take `Nc1ccc(Cc2ccc(/N=C\c3ccc(OCc4cccc(COc5ccc(/C=N\c6ccc(Cc7ccc(N)cc7)cc6)cc5)n4)cc3)cc2)cc1`: the GI50 was inactive: > 100 µM.

For the compound `CCCCOC(=O)C1CN2C=CC=NC2=NC1(C(F)(F)F)C(F)(F)F` (stereo unspecified), the GI50 is inactive: > 100 µM.

For the compound `CCOC(=O)C1=C(c2ccccc2)N(C)c2ccccc2S1`, the GI50 is inactive: 48.5 µM.

For the compound `CC(=O)Nc1ccc(-c2nnc(SCC(=O)Nc3cccc(Cl)c3)o2)cc1`, the GI50 is inactive: 19.1 µM.

As for `CSC1=Nc2ccccc2N(C)c2c1c(-c1ccccc1)nn2C`, the GI50 was inactive: 84.5 µM.

Regarding `COC(=O)[C@@H]1[C@@H]2NC(=S)N[C@@]1(C)Oc1ccccc12`, the GI50 was inactive: 37 µM.

Take `COc1cc2c(cc1OC)CC(=O)Nc1cc(OC)c(OC)cc1CC2`: the GI50 was inactive: 52.4 µM.

Take `O=C(CCC(=O)C(C(=O)c1ccccc1)c1ccccc1)Nc1cccc(C(F)(F)F)c1` (stereo unspecified): the GI50 was inactive: > 100 µM.

As to `CC(=O)c1cn(-c2ccc(Cl)cc2)c(=O)c2c(N)n[nH]c12`, the GI50 was inactive: > 100 µM.

In the case of `COc1ccc2c(c1)CC[C@@H]1[C@@H]2CC[C@]2(C)C(=O)/C(=C/c3ccc(O)c(OC)c3)C[C@@H]12`, the GI50 is inactive: > 100 µM.

With `COc1ccc2oc(=O)c(-c3nc4ccccc4s3)cc2c1`, the GI50 was inactive: 21.1 µM.

As for `NC(=O)N1N=C2c3ccccc3OC[C@H]2[C@@H]1c1ccccc1`, the GI50 is inactive: 5.65 µM.

Regarding `O=C(NC(=O)c1cn(CCN2CCNCC2)c(=O)[nH]c1=O)OCc1ccccc1`, the GI50 was inactive: > 100 µM.

For the compound `CCOC(=O)CCC(C(=O)OCC)n1nnc2cc(Nc3c(C)[n+]([O-])c4cc(Cl)ccc4[n+]3[O-])ccc21` (stereo unspecified), the GI50 was inactive: > 100 µM.

Turning to `CC(C)(CC#N)c1cc(CC(C)(C)c2cc(CC(C)(C)c3cc(C(C)(C)C4(C)OCCO4)no3)no2)no1`, the GI50 is inactive: 36.2 µM.

Turning to `Cn1c(=N)n[n+]([O-])c2ccccc21`, the GI50 was inactive: 16.1 µM.

`CCOC(=O)C1S(=O)(=O)OCCOS1(=O)=O`: the GI50 was inactive: > 100 µM.

Consider `COc1ccc(C)cc1NC(=S)N/N=C/c1ccco1`, for which the GI50 was inactive: 40.7 µM.

With `Cc1ccc(S(=O)(=O)OC(COC(=O)c2ccccc2)C(OS(=O)(=O)c2ccc(C)cc2)C(OS(=O)(=O)c2ccc(C)cc2)C(COC(=O)c2ccccc2)OS(=O)(=O)c2ccc(C)cc2)cc1` (stereo unspecified), the GI50 was inactive: > 100 µM.

Regarding `CC(C)=C[C@H]1CCC2(OCCO2)[C@]1(C)COCc1ccccc1`, the GI50 was inactive: 87.9 µM.

In the case of `CC(C)C(OC(=O)c1cc(NC(=S)c2ccccc2)ccc1Cl)C(C)C`, the GI50 is inactive: 32.9 µM.

Turning to `O=c1cc(-c2ccc(Cl)cc2)oc2cc(OCCCOc3ccc4c(=O)cc(-c5ccc(Cl)cc5)oc4c3)ccc12`, the GI50 is inactive: > 100 µM.

For `C[Si](C)(C)C#CCOC=C1CC1`, the GI50 was inactive: > 100 µM.

In the case of `CC(=O)OC1[C@H]2c3cc4c(cc3CN3CCC(=C[C@@H]1O)C23)OCO4` (stereo partly specified), the GI50 is inactive: > 100 µM.

As for `C=C1C(OC2O[C@@H]3O[C@@]4(C)CC[C@H]5[C@H](C)CC[C@@H](C2=C)[C@@]35O4)O[C@@H]2O[C@@]3(C)CC[C@H]4[C@H](C)CC[C@@H]1[C@@]24O3` (stereo partly specified), the GI50 was inactive: > 50 µM.

With `CON(C)C(=O)C(C)NC(=O)OCc1ccccc1` (stereo unspecified), the GI50 was inactive: > 100 µM.

For `C=C1C(=O)O[C@@H]2[C@H]3O[C@]3(C)CCC=C(C)CC[C@@H]12`, the GI50 is inactive: 19.5 µM.
